No constants are given. Whether binding was seen depends on the method and setting. Some entries that bind do so weakly or less than the wild type. For part of these data: Tags and fused reporters may be left off the sequences shown.
Tests used:
[1] = target: T1, mouse MMRN2^495-678 (mouse) (UniProt A6H6E2); test: far-Western; mouse MMRN2 (495-678) expressed in HEK293T, probed with mouse CLEC14A-ECD-Fc (Supplementary Figure S4)
T1 sequence: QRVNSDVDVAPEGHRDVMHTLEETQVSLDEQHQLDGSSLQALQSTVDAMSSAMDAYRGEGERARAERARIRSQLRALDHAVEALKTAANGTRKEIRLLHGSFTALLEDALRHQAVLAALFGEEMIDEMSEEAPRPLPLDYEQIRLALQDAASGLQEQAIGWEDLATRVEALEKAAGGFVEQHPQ

Protein sequences, listed by entry. Tags and fused reporters are not part of them. Lines headed by an entry give the natural chain unless they say otherwise; changes in a name come on top. Chains listed by the source or under a name are the forms on record and can include a tag or linker. Residues count along the entry.
CLEC14A with C-terminal green fluorescent protein tag (CLEC14A-GFP) (Q86T13, residues 22-490): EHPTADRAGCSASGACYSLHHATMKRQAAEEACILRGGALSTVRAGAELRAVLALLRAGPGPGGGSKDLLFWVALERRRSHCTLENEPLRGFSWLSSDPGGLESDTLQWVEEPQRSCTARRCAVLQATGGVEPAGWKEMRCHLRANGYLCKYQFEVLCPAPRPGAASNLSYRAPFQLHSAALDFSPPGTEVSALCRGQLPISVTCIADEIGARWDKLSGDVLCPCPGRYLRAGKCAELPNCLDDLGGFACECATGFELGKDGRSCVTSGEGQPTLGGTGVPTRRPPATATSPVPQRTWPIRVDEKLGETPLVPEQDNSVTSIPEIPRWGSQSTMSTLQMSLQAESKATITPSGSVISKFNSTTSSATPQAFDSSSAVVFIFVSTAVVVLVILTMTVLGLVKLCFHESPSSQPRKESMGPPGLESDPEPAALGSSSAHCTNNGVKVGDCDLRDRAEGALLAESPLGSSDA
CLEC14A^C103S (Q86T13, form named): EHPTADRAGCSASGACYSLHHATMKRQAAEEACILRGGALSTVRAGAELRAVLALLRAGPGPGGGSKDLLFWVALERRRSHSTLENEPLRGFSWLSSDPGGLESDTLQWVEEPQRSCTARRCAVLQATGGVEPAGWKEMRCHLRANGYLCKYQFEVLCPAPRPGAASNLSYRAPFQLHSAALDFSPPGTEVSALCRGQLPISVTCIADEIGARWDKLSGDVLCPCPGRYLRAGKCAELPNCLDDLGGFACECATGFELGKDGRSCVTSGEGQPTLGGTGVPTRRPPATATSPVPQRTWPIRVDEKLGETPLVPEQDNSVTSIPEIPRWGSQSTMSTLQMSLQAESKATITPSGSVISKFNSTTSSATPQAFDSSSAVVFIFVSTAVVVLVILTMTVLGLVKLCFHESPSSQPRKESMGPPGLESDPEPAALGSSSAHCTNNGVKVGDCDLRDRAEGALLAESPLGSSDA
CLEC14A^C138S (Q86T13, form named): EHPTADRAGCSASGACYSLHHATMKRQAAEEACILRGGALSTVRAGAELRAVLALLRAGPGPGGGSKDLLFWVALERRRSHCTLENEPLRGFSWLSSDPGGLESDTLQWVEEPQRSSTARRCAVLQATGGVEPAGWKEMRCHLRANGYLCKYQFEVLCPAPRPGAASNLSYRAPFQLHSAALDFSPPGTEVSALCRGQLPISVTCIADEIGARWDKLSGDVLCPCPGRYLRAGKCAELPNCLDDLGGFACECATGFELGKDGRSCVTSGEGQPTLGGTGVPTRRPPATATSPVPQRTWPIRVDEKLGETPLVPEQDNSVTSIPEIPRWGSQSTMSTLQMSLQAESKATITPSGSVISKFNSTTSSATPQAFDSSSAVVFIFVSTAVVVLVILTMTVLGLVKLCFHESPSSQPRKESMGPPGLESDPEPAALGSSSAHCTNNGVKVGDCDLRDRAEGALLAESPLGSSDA
UniProt P07204, residues 19-575: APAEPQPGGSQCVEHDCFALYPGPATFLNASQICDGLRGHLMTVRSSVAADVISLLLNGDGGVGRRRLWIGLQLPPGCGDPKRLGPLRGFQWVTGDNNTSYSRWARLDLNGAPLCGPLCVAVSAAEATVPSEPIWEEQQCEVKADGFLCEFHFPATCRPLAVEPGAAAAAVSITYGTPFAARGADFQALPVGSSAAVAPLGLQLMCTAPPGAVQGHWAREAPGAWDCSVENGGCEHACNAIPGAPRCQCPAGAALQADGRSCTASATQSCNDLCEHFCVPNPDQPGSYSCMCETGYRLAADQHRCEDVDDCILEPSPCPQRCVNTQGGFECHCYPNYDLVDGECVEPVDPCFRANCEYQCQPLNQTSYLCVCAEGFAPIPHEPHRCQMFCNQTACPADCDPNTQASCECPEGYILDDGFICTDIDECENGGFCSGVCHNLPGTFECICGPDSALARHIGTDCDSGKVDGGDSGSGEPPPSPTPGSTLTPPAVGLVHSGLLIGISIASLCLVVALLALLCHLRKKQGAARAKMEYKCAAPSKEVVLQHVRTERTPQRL
CD93 with C-terminal green fluorescent protein tag (CD93-GFP) (Q9NPY3, residues 22-652): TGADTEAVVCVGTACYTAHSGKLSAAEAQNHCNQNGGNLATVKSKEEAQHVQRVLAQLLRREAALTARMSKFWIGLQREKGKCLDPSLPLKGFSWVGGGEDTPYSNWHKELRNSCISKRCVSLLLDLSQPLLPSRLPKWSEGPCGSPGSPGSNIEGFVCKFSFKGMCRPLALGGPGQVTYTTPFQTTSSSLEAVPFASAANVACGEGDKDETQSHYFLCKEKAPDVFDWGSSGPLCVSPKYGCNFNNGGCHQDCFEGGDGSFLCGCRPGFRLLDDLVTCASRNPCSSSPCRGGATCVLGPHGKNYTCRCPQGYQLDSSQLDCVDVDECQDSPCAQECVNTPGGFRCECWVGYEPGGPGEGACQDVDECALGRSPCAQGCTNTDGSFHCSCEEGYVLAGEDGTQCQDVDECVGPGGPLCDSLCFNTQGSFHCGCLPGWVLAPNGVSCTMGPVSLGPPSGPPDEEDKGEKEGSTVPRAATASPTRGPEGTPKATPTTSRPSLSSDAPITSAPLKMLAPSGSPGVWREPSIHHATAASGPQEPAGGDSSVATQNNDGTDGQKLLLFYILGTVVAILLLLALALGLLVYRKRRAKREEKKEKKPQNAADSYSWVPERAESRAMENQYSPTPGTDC
CD93^C136S (Q9NPY3, form named): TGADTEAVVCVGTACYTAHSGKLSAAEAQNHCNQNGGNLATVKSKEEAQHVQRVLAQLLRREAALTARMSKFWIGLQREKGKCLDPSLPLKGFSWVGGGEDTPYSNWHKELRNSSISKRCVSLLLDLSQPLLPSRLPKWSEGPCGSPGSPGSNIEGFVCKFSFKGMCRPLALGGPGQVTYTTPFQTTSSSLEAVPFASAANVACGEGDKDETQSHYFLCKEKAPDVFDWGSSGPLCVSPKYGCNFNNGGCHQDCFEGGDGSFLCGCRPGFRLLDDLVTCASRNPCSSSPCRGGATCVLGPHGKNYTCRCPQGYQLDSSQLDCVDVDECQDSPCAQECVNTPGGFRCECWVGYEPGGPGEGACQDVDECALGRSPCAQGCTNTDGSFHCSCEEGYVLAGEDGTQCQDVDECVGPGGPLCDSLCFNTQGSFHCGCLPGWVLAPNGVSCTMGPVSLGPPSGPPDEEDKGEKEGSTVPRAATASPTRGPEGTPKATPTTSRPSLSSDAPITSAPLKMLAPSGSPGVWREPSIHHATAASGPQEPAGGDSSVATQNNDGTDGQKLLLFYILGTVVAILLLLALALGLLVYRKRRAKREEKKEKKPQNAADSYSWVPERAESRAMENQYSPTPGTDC
CD93^C104S (Q9NPY3, form named): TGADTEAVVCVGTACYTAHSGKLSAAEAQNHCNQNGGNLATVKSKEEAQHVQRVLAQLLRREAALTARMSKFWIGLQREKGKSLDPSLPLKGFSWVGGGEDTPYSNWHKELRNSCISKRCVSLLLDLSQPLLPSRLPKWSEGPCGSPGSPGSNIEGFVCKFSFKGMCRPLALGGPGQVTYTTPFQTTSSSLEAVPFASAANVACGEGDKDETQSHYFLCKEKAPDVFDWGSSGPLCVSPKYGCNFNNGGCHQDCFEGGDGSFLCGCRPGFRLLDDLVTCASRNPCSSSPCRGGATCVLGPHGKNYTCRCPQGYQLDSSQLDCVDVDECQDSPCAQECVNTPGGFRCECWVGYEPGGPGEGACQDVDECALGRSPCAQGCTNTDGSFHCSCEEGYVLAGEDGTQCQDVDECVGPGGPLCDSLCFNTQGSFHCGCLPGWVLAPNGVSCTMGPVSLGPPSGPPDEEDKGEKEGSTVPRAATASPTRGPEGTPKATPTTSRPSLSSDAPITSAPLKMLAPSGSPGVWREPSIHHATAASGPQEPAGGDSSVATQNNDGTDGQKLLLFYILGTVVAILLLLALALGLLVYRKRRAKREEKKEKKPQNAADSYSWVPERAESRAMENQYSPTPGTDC
UniProt Q8VCP9, residues 22-386: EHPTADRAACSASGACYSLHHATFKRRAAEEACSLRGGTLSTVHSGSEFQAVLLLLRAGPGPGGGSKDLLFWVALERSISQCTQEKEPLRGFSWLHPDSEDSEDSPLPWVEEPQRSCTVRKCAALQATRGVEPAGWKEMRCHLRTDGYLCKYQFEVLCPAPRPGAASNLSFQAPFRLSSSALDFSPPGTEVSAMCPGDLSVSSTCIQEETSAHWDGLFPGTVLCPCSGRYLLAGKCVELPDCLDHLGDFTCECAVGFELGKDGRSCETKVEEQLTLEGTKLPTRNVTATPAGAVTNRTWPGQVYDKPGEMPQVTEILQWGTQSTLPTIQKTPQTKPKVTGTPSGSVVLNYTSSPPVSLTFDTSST

[2] = target: CLEC14A with C-terminal green fluorescent protein tag (CLEC14A-GFP) (human) (UniProt Q86T13); test: flow cytometry on cells; transfected HEK293T (5 x 10^5) stained with biotinylated MMRN2^495-674 (20 μg/ml), detected with streptavidin-PE; GFP+ cells gated; only the binder purified
CLEC14A^C103S (human) = CLEC14A^C103S (human) (UniProt Q86T13); test: as above
CLEC14A^C138S (human) = CLEC14A^C138S (human) (UniProt Q86T13); test: as above
[3] = target: thrombomodulin with C-terminal green fluorescent protein tag (UniProt P07204); test: as above
CD93^C136S = CD93^C136S (UniProt Q9NPY3); test: as above
CD93^C104S = CD93^C104S (UniProt Q9NPY3); test: as above
[4] = target: CD93 with C-terminal green fluorescent protein tag (CD93-GFP) (UniProt Q9NPY3); test: as above
MMRN2^133-486 (human) = target: T2, MMRN2^133-486 (human) (UniProt Q9H8L6); test: far-Western; lysates of HEK293T transfected with MMRN2 truncation mutants under reducing conditions; probed with mCD248-ECD-Fc (2 μg/ml); only the binder purified
T2 sequence: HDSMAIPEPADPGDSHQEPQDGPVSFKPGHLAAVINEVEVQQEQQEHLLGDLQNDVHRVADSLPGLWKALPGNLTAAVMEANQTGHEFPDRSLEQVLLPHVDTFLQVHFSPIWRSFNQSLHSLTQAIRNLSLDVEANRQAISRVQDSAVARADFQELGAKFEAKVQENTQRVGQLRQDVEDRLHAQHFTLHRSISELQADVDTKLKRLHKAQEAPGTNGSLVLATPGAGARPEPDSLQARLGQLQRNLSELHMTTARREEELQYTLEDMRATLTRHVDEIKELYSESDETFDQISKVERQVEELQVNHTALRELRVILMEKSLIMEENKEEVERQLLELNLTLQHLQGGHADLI

**Q.** For “mouse CLEC14A-ECD-Fc (from UniProt Q8VCP9 22-386) (Fc fusion)”, which binding [1] is on record?
**A.** Its binding is “binds”.

B1: biotinylated MMRN2^495-674 with BirA tag, from E. coli (domain or fragment, UniProt Q9H8L6 495-674)
chain: QKLYLDLDVIREGQRDATRALEETQVSLDERRQLDGSSLQALQNAVDAVSLAVDAHKAEGERARAATSRLRSQVQALDDEVGALKAAAAEARHEVRQLHSAFAALLEDALRHEAVLAALFGEEVLEEMSEQTPGPLPLSYEQIRVALQDAASGLQEQALGWDELAARVTALEQASEPPRP
modifications: biotin (BirA tag for specific biotinylation)
**Q.** Which binding [2] does the source give for B1 here?
**A.** Its binding is “binds”.

**Q.** What about the binding (CLEC14A^C103S (human)) of the same molecule?
**A.** The binding was “no binding (tested: 20 μg/ml)”.

**Q.** What about the binding (CLEC14A^C138S (human)) of the same molecule?
**A.** Its binding is “no binding (tested: 20 μg/ml)”.

**Q.** What about the binding [3] of the same molecule?
**A.** The binding was “no binding (tested: 20 μg/ml)”.

**Q.** And the binding (CD93^C136S)?
**A.** Its binding is “no binding (tested: 20 μg/ml)”.

**Q.** And the binding (CD93^C104S)?
**A.** The binding was “no binding (tested: 20 μg/ml)”.

**Q.** What about the binding [4] of the same molecule?
**A.** The binding was “binds”.

B2: mouse CD248 extracellular domain with Fc tag (mCD248-ECD-Fc) (Fc fusion, UniProt Q91V98 18-695)
chain: QVPWTPEPRAACGPSSCYALFPRRRTFLEAWRACRELGGNLATPRTPEEAQRVDSLVGVGPANGLLWIGLQRQARQCQPQRPLRGFIWTTGDQDTAFTNWAQPATEGPCPAQRCAALEASGEHRWLEGSCTLAVDGYLCQFGFEGACPALPLEVGQAGPAVYTTPFNLVSSEFEWLPFGSVAAVQCQAGRGASLLCVKQPSGGVGWSQTGPLCPGTGCGPDNGGCEHECVEEVDGAVSCRCSEGFRLAADGHSCEDPCAQAPCEQQCEPGGPQGYSCHCRLGFRPAEDDPHRCVDTDECQIAGVCQQMCVNYVGGFECYCSEGHELEADGISCSPAGAMGAQASQDLRDELLDDGEEGEDEEEPWEDFDGTWTEEQGILWLAPTHPPDFGLPYRPNFPQDGEPQRLHLEPTWPPPLSAPRGPYHSSVVSATRPMVISATRPTLPSAHKTSVISATRPPLSPVHPPAMAPATPPAVFSEHQIPKIKANYPDLPFGHKPGITSATHPARSPPYQPPIISTNYPQVFPPHQAPMSPDTHTITYLPPVPPHLDPGDTTSKAHQHPLLPDAPGIRTQAPQLSVSALQPPLPTNSRSSVHETPVPAANQPPAFPSSPLPPQRPTNQTSSISPTHSYSRAPLVPREGVPSPKSVPQLPSVPSTAAPTALAESGLAGQSQRDDRWL
**Q.** How did the binding (MMRN2^133-486 (human)) turn out when B2 was run?
**A.** The binding was “binds”.

Source: paper PMC5671938, “Multimerin-2 is a ligand for group 14 family C-type lectins CLEC14A, CD93 and CD248 spanning the endothelial pericyte interface” (Oncogene, 2017)
